Source: PubChem BioAssay AID651820 (National Center for Advancing Translational Sciences (NCATS), 2012)
The whole screen tested about 340,000 compounds, of which about 12,000 (3.5%) were called active. The shares of active, inactive and inconclusive entries below differ from those in the screen. The call rests on the fitted dose curve; in most records, active means well fitted inhibition curve with a large enough effect; inconclusive means small, poorly fitted or top-dose-only effect, or another doubt; inactive means no such curve, though single readings can be large or run the other way. Potencies of inconclusive entries are left out as doubtful fits.

Test: qHTS Assay for Inhibitors of Hepatitis C Virus (HCV)
Details: Huh7.5.1 HCVcc-Cre (HCVcc is cell-culture hepatitis C virus) infection, luciferase reporter, 44 h; activity change, negative = inhibition: at 41.8 µM (top of the series) unless noted
Summary of the method: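 1,000 cells/well; 4 h culture; + compound; + HCVcc-Cre (~0.5 moi); 44 h; luciferase substrate, RT 15 min; read 15 sec.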
On the % scale 0 is the no-effect control and ±100 the full control effect; potency means the concentration at half of the fitted maximal effect; tags describe the fitted curve by direction and shape.

SMILES	Potency	activity change, negative = inhibition
CCN(CC)C(=O)c1sc2nc(-c3ccccc3)ccc2c1N	inconclusive [inhibitor, single point]	
CN(Cc1ccccc1)C(=O)c1ccc(NC(=O)Cc2ccc(NC(=O)C3CCCN(C(=O)CCc4ccccc4)C3)cc2)cc1 (stereo unspecified)	active: 2.24 µM	
CCCn1c(C(=O)OC)cc2c1ccn2-c1ccc(F)cc1	active: 31.6 µM	
CCOC(=O)C1(CCOc2ccccc2)CCN(Cc2ccc(COC)o2)CC1	inconclusive [inhibitor, single point]	
Cc1cc(NC(=O)c2ccc3nccnc3c2)ccc1Br	inconclusive [inhibitor, partial curve]	
O=C(CCN1C(=O)C2CCCCC2C1=O)Nc1nc2c(F)cc(F)cc2s1 (stereo unspecified)		inactive: 15.2%
O=C(NCC1CCCO1)c1cccc(NS(=O)(=O)c2ccccc2)c1 (stereo unspecified)	inconclusive [inhibitor, single point]	
COC(=O)c1sc2ncccc2c1OCc1ccc(Cl)cc1Cl		inactive: -19.7%
O=C(Nc1ccc(Oc2cccnc2)cc1)c1cccc([N+](=O)[O-])c1	inconclusive [inhibitor, full curve]	
COCc1ccc(C(=O)N2CCCC(Nc3ccc(C(C)C)cc3)C2)o1 (stereo unspecified)	inconclusive [inhibitor, single point]	
CCOc1cc(C#N)c(NC(=O)c2ccnn2C)cc1OCC	inconclusive [inhibitor, partial curve]	
COc1cc(OC)c(N(C)S(=O)(=O)c2cccc(C(=O)NC3=NCCS3)c2)cc1Cl	inconclusive [inhibitor, single point]	
COc1cccc(C(=O)Nc2ccc(N(C)C)cc2)c1OC		inactive: -2.66%
COc1ccccc1N(C)S(=O)(=O)c1ccc(C(=O)Nc2cc(OC)c(OC)c(OC)c2)cc1	inconclusive [inhibitor, single point]	
CC(Nc1ccc(Cl)cc1)C(=O)NN (stereo unspecified)	inconclusive [inhibitor, partial curve, poor fit]	
CC1(C(=O)N2CCC(CC3CC(c4cccc(Br)c4)=NO3)(C(=O)NCC3CCCCC3)CC2)CC1 (stereo unspecified)		inactive: -14.9%
CCOC(=O)Cn1nnnc1C(C(C)C)N(Cc1cccs1)Cc1cc2cc(C)ccc2[nH]c1=O (stereo unspecified)	inconclusive [inhibitor, single point]	
Clc1ccccc1-c1nnc2sc(CCc3ccccc3)nn12		inactive: -17%
COc1ccc(OC)c(NC(=O)C(=O)NNC(=O)COc2ccc(Br)cc2C)c1	inconclusive [inhibitor, single point]	
CC(/C=N\NC(=O)Cn1c(C)nc2ccccc21)=C\c1ccccc1	inconclusive [inhibitor, full curve]	
CC1CCN(c2nc3ccc(C(=O)NCCCN4CCCCC4)cc3s2)CC1		inactive: -10.2%
CCOC(=O)c1cc(C#N)c(Oc2ccc(F)cc2)nc1-c1ccccc1	inconclusive [inhibitor, single point]	
CCCCOC(=O)Nc1nnc(/C=C/c2ccc(OC)cc2)s1		inactive: 10.9%
Oc1c(Cl)cc(Cl)cc1C=Nc1cc(C(F)(F)F)ccc1N1CCc2ccccc2C1	inconclusive [inhibitor, single point]	

SMILES	Potency	activity change, negative = inhibition
Cc1cc(C)n2nc(SCC(=O)c3cc(C)n(CC4CCCO4)c3C)nc2n1 (stereo unspecified)	inconclusive [inhibitor, partial curve, poor fit]	
Cc1cc(=O)oc(C)c1C(=O)NCCN1CCOCC1		inactive: 23.4%
CCOC(=O)Cc1nc2ccccc2[nH]1		inactive: -7.99%
O=C(COc1ccccc1)N1CCCC1		inactive: 13.8%
C/C(=N\NC(=O)c1ccco1)c1ccc(NC(=O)c2cccs2)cc1	inconclusive [inhibitor, partial curve]	
COc1ccc(Br)cc1/C=N/NC(=O)c1ccc(OC)c(OC)c1	inconclusive [inhibitor, partial curve]	
CCOC(=O)c1c(C)n(C)c2cc(OCCN(CC)CC)ccc12	inconclusive [inhibitor, single point]	
CCC(C(=O)Nc1ccc(Cl)cc1)N1CCCC1=O (stereo unspecified)	inconclusive [inhibitor, single point]	
Cc1ccc(NC(=O)COc2cccnc2[N+](=O)[O-])cc1S(=O)(=O)N1CCCCC1	inconclusive [inhibitor, partial curve]	
FC(F)(F)c1ccccc1NC(=S)N1CCc2ccccc2C1		inactive: -27.9%
COc1ccc(N2C(=O)/C(=C\c3ccco3)N=C2SCC(=O)NC(C)C)cc1Cl	inconclusive [inhibitor, single point]	
CCN(CC)c1ccc(-c2nn3c(-c4cccnc4)nnc3s2)cc1	inconclusive [inhibitor, partial curve]	
Cc1[nH]c(C(=O)N/N=C/c2ccc(N(C)C)cc2)c(C)c1C(=O)N/N=C/c1ccc(N(C)C)cc1	inconclusive [inhibitor, partial curve]	
Cc1cc(=O)n2nc(N3CCC(C(=O)N4CCN(c5ccccc5)CC4)CC3)sc2n1		inactive: -11%
CCOC(=O)c1c(CSc2ccccc2)oc2ccc(O)cc12	inconclusive [inhibitor, partial curve]	
CCOc1ccc(CCNC(=O)c2cc(-c3ccccc3)c(N3CCOCC3)s2)cc1OCC	inconclusive [inhibitor, partial curve]	
NC(=S)Nc1cccc2cnccc12		inactive: -5.61%
O=C1CC(c2ccsc2)c2cc3c(cc2N1)OCCO3 (stereo unspecified)	inconclusive [inhibitor, single point]	
Cc1ccc(NC(=O)NCc2ccc3c(c2)OCO3)cc1C		inactive: -4.87%
COc1cc(N2CCC(O)CC2)ccc1Nc1nnc(Cl)c(Nc2ccccc2S(C)(=O)=O)n1	inconclusive [inhibitor, single point]	
CCN(CC)c1ccc(C(=C2C=CC(=[N+](CC)CC)C=C2)c2ccc(N(CC)CC)cc2)cc1	active: 1.78 µM	
O=C(O)c1cccnc1Cl		inactive: 9.23%
Nn1c(SCc2ccc(F)cc2)nnc1-c1ccccn1		inactive: 10.7%
CC1CCC2(CC1)NC(=O)N(NC(=O)c1cccc(N(C)C)c1)C2=O (stereo unspecified)		inactive: -5.2%

SMILES	Potency	activity change, negative = inhibition
Nc1nc(CSC(=S)N2CCN(c3ccccc3)CC2)nc(Nc2ccccc2)n1	inconclusive [inhibitor, single point]	
CCc1ccccc1S(=O)(=O)Cc1ccc(C(=O)N2CCN(c3ccccc3OC)CC2)o1	inconclusive [inhibitor, single point]	
CCN1CCN(c2ccc(NC(=O)c3ccc(Cl)c(N4CCCC4=O)c3)cc2)CC1		inactive: 6.11%
CC(C)OC(=O)c1ccc(NCc2cc(O)ccc2O)cc1	active: 3.55 µM	
Cc1cc(C)c2cc(C)c(SCC(=O)NCc3ccco3)nc2c1	inconclusive [inhibitor, single point]	
CC(=O)Nc1ccc(/C(C)=N/Nc2nc(Nc3cccc4ccccc34)nc(N3CCOCC3)n2)cc1	inconclusive [inhibitor, partial curve]	
COC(=O)C(c1ccccc1)N(Cc1cccc(CN(C(C(=O)OC)c2ccccc2)S(C)(=O)=O)c1)S(C)(=O)=O (stereo unspecified)	inconclusive [inhibitor, full curve, poor fit]	
O=C(Nc1ccc2oc(-c3ccccc3)nc2c1)c1cc(-n2cnnc2)ccc1Cl	inconclusive [inhibitor, full curve]	
CCOc1ccccc1/C=C(\C#N)C1=CCCC1		inactive: 14.7%
Oc1ccccc1-c1nc(NCC2CCCO2)c2ccccc2n1 (stereo unspecified)	active: 12.6 µM	
Cc1c(Cl)cccc1NC(=O)COC(=O)c1c2c(nc3ccccc13)CCN(Cc1ccccc1)C2	inconclusive [inhibitor, partial curve, poor fit]	
Cc1c([N+](=O)[O-])cnc(Sc2ccccc2)c1[N+](=O)[O-]	inconclusive [inhibitor, single point]	
CCC(C)NCCCCOc1ccc(Cl)cc1C (stereo unspecified)	inconclusive [inhibitor, partial curve]	
COc1cc(C(=O)Nc2cc(C(F)(F)F)ccc2-n2cncn2)cc(OC)c1OC	inconclusive [inhibitor, partial curve]	
CCc1ccc(-c2nc(CN3CCC(C(=O)NCCN(CC)c4ccccc4)CC3)c(C)o2)cc1	inconclusive [inhibitor, single point]	
O=C(CSc1nnc(-c2cccs2)n1-c1ccccc1)NCc1ccc2c(c1)OCO2	inconclusive [inhibitor, single point]	
CCOc1ccc(NC(=O)C2CCCN(S(=O)(=O)c3ccc4c(c3)CCCN4C(C)=O)C2)cc1 (stereo unspecified)	inconclusive [inhibitor, single point]	
CC(=O)c1sc2nc(-c3ccc(C)cc3)c3c(c2c1N)CCCC3	inconclusive [inhibitor, full curve]	
CCCCNC(=O)Nc1nc2ccc(CC)cc2s1	inconclusive [inhibitor, full curve, poor fit]	
O=C(O)c1c2c(nc3ccccc13)-c1ccccc1CC2		inactive: 1.71%
COc1ccc(-c2onc(C)c2-c2ccc(C(=O)OC(C)C)o2)c(O)c1	active: 6.31 µM	
O=C(C1CSC2(c3ccc(F)cc3)CCC(=O)N12)N1CCCCCC1 (stereo unspecified)	inconclusive [inhibitor, single point]	
Cc1sc(NC(=O)C2=COCCO2)nc1-c1ccc(Br)cc1	inconclusive [inhibitor, single point]	
